Experimental data from PubChem BioAssay AID1768 (National Center for Advancing Translational Sciences (NCATS), 2009).
Screen size: about 270,000 compounds; about 620 (0.23%) were called active. Calls follow the shape of the dose curve; as a rule, active = well fitted inhibition curve with a large enough effect in the polarisation, with a control signal flat (not every such curve was filed as active); inconclusive = small, poorly fitted or top-dose-only effect, or effect the other way, or a change in a side signal; inactive = no such curve, though single readings can be large or run the other way; the % refers to the polarisation. Inconclusive results, whose numbers are uncertain, are shown. A potency beside an inconclusive call is a rough fit, not a confirmed value. “Side channel” marks fits to a control or component signal instead of the main read-out.

Each compound was assayed against Menin (Homo sapiens) (UniProt O00255) (assay: qHTS Assay for Inhibitors Targeting the Menin-MLL Interaction in MLL Related Leukemias: Competition With Texas Red Labeled MLL-derived Mutant Peptide). Details: fluorescence polarization; series mostly up to 61.6 µM.
Potency is read from the fitted curve at half-maximal effect; tags tell the direction and shape of the fitted curve or compound fluorescence and quenching.

UniProt O00255, sequence (O00255 whole entry, looked up): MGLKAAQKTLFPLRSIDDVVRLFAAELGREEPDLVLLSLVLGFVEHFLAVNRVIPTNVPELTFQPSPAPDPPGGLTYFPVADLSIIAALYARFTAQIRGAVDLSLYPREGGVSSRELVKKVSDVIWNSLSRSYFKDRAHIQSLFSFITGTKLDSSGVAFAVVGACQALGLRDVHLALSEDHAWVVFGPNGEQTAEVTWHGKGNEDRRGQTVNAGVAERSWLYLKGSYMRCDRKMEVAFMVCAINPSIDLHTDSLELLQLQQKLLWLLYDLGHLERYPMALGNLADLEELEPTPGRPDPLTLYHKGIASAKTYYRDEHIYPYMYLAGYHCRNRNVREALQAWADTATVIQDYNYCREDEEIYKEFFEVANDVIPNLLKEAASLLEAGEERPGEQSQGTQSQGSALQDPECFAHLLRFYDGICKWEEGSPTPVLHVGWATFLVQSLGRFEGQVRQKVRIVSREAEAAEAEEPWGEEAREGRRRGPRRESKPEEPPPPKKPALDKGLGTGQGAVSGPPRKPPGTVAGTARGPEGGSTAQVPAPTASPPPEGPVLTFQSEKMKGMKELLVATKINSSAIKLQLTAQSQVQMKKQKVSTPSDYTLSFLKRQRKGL

Potency, inconclusive:
COc1ccc(/C=N/NC(=O)c2ccncc2)cc1Cn1nc([N+](=O)[O-])c(Br)c1C 20 µM [quencher, side channel, partial curve]
CC1CCN(C(=O)COC(=O)Cc2ccc(Br)cc2)CC1 14.1 µM [inhibitor, partial curve]
COc1ccc2nc(Nc3nc4cc5c(cc4s3)OCCO5)sc2c1 14.1 µM [quencher, side channel, partial curve]
Clc1ccccc1N/N=C/c1ccc2c(c1)OCO2 28.2 µM [quencher, side channel, partial curve]
CN(C)S(=O)(=O)c1ccc2c(c1)nc(CCC(=O)O)n2C 28.2 µM [fluorescent, side channel, single point]
O=C(c1ccc(S(=O)(=O)N2CCOCC2)cc1)N1CCc2ccccc21 39.8 µM [fluorescent, side channel, single point]
Cc1cc(NCCOCCO)n2ncc(-c3ccc(Cl)cc3)c2n1 22.4 µM [quencher, side channel, partial curve]
OCCNCc1cc(Br)ccc1OCc1ccc(F)cc1 12.6 µM [inhibitor, partial curve]
CC(C)(C)c1nc(NCC2CCCO2)c2nnn(Cc3ccccc3)c2n1 (stereo not given) 6.31 µM [fluorescent, side channel, partial curve, poor fit]
Cc1cccc(COC(=O)Nc2ccc(NC(=O)c3ccccc3Cl)cc2)c1 35.5 µM [fluorescent, side channel, single point]
CCOc1ccc(NC(=O)CSC2=C(C#N)C(c3ccc4c(c3)OCO4)CC(=O)N2)cc1 (stereo not given) 28.2 µM [quencher, side channel, single point]
COc1ccc(C(=O)/C=C/Nc2cccc(C)n2)cc1OC 39.8 µM [fluorescent, side channel, single point]
COc1cccc(N2CCN(c3ncnc4c3[nH]c3ccccc34)CC2C)c1 (stereo not given) 28.2 µM [quencher, side channel, single point]
O=C(O)c1csc(N/N=C/c2ccc(Br)cc2)n1 7.94 µM [quencher, side channel, full curve, poor fit]
Cc1oc(-c2cccs2)nc1CN1CCC(c2ccccc2)CC1 20 µM [fluorescent, side channel, partial curve]
